This note sets out measurements from publication PMC10806146.

Sequences of proteins named here, by UniProt entry; tags and fusion partners are left off.
UniProt P51617: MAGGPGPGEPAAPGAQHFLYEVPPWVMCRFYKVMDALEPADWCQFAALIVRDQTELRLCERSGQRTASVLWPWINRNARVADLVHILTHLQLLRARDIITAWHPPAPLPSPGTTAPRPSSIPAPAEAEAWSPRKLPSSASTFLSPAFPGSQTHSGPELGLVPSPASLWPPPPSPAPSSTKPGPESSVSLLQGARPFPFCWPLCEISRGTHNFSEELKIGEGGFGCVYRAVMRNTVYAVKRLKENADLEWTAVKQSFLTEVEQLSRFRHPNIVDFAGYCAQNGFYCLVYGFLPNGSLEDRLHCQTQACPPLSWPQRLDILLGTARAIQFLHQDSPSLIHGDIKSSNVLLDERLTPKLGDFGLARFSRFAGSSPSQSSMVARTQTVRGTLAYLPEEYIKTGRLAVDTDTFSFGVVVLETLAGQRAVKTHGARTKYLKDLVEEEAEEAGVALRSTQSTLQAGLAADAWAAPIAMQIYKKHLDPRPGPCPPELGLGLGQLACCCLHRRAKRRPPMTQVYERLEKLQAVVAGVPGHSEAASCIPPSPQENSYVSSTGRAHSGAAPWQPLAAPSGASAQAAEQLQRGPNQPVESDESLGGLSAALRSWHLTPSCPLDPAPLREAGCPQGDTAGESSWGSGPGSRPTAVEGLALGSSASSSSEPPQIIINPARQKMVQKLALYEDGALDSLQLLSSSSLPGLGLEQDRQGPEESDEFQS
UniProt Q99836: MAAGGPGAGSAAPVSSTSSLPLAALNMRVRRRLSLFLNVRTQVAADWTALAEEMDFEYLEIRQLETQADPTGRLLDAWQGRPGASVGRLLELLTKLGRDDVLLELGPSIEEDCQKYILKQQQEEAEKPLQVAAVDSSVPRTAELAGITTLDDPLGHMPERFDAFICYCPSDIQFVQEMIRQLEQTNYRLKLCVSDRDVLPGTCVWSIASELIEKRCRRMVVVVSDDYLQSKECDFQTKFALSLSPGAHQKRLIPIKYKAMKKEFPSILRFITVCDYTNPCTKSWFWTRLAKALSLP

Numbering of substitutions follows the chain as printed. Results are given in words; binding and its absence hold for the method and conditions named. In cells and extracts the contact can be indirect. Some results given as binding are weak or reduced against the parent protein; the word gives no strength.

The target of assay [1] is T1, IRAK-M K60E (human) (UniProt Q9Y616).
T1 sequence: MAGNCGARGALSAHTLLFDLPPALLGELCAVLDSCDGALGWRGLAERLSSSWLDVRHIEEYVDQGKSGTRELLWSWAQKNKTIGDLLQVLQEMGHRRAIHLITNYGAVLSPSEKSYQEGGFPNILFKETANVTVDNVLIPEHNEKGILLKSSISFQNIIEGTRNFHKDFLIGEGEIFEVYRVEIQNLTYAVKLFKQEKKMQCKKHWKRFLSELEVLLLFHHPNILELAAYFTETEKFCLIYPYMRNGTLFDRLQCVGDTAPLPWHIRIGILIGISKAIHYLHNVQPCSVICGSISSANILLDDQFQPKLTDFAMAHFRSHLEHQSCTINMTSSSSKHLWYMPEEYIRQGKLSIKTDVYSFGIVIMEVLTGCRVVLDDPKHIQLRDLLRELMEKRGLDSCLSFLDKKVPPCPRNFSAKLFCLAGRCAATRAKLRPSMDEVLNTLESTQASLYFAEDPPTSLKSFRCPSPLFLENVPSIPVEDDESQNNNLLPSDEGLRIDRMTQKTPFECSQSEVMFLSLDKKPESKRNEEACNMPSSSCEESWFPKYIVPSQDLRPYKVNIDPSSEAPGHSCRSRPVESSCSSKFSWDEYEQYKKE
Nature of the assay: co-IP; IRAK-M WT or mutant co-expressed with IRAK-1 in 293T cells, without myddosome; IP with anti-IRAK-M 1F6; blots with anti-IRAK-1 and anti-IRAK-M 4369.

In assay [2] the target is T2, IRAK-M Y105A (human) (UniProt Q9Y616).
T2 sequence: T1 sequence with E60K, Y105A
The assay is described as above.

The target of assay [3] is T3, interleukin-1 receptor associated kinase-M (IRAK-M), wild type (human) (UniProt Q9Y616).
T3 sequence: T1 sequence with E60K
Described as above.

Assay [4] deals with T4, IRAK-M W74A (human) (UniProt Q9Y616).
T4 sequence: T1 sequence with E60K, W74A
Nature of the assay: co-IP; IRAK-M WT or mutant co-expressed with IRAK-4-FLAG and MyD88-HA in 293T cells; IP with anti-IRAK-M 1F6 and protein A/G agarose; blots with anti-FLAG, anti-HA and anti-IRAK-M 4369.

In assay [5] the target is T2, IRAK-M Y105A (human). The description is as above.
For assay [6], the target named is T5, IRAK-M R97Q (human) (UniProt Q9Y616).
T5 sequence: T1 sequence with E60K, R97Q
The assay is described as above.

The target of assay [7] is T3, interleukin-1 receptor associated kinase-M (IRAK-M), wild type (human). The assay is described as above.
Assay [8] has as its target T6, IRAK-M P478G (human) (UniProt Q9Y616).
T6 sequence: T1 sequence with E60K, P478G
The description is as above.

For IRAK-1 (from UniProt P51617 1-712), the binding result in assay [1] is “no binding”; in assay [2] it was “binds”; in assay [3], “binds”.

As to MyD88-HA (from UniProt Q99836 1-296), the binding result in assay [4] is on record as “no binding”; in assay [5], “binds”; in assay [6] it was “binds”; in assay [7], “binds”; in assay [8], “binds”.
